According to article PMC11995724, “Antibiotic target discovery by integrated phenotypic and activity-based profiling of electrophilic fragments” (Cell chemical biology, 2025):
Out of some 3,200 compounds screened, about 75 (2%) showed an effect of 50% or more. The list shows a part of the results.

What follows are compounds tested on T1, S. aureus MSSA476. Conditions: relative growth, OD600, TSB; 25 µM; inhibitor.
T1 construct: MSSA476
Parameters: species or system S. aureus MSSA476 (TSB) or V. cholerae SAD30 (LB); 384-well bacterial growth screen at 25 uM, OD600 relative to DMSO control

Structure (SMILES) | % of control remaining [%]
Cn1cc(C=C(C#N)C(=O)NCc2ccccc2)cn1 [8-J10, N-benzyl-2-cyano-3-(1-methyl-1H-pyrazol-4-yl)prop-2-enamide] | 86.971
COc1ccc(C(NC(=O)CCl)c2ccccc2)cc1 (stereo not drawn) [4-J11, 2-chloro-N-[(4-methoxyphenyl)(phenyl)methyl]acetamide] | 91.091
C=CC(=O)NCc1oc(CC)nc1C [3-P15, N-[(2-ethyl-4-methyl-1,3-oxazol-5-yl)methyl]prop-2-enamide] | 86.7218
CC(Cl)C(=O)Nc1ccc(Cl)cc1C(F)(F)F (stereo not drawn) [4-A14, 2-chloro-N-[4-chloro-2-(trifluoromethyl)phenyl]propanamide] | 134.921
C=CC(=O)NCc1ccnc(OC2CCOCC2)c1 [2-B17, N-{[2-(oxan-4-yloxy)pyridin-4-yl]methyl}prop-2-enamide] | 135.77
CC(Cl)C(=O)Nc1ccc(SC(F)F)cc1 (stereo not drawn) [4-L09, 2-chloro-N-{4-[(difluoromethyl)sulfanyl]phenyl}propanamide] | 91.091
N#CC(=Cc1ccc(F)c([N+](=O)[O-])c1)C(=O)Nc1ccc(F)cc1 [8-D04, 2-cyano-3-(4-fluoro-3-nitrophenyl)-N-(4-fluorophenyl)prop-2-enamide] | 123.154
COc1ccc(OC)c(C(C)NC(=O)CCl)c1 (stereo not drawn) [4-M19, 2-chloro-N-[1-(2,5-dimethoxyphenyl)ethyl]acetamide] | 119.676
N#CC(=Cc1c(F)cccc1Cl)C(=O)Nc1ccc(C(=O)O)cc1 [9-P06, 4-[3-(2-chloro-6-fluorophenyl)-2-cyanoprop-2-enamido]benzoic acid] | 109.663
C=CC(=O)Nc1ccc2c(=O)onc(C)c2c1 [1-N12, N-(4-methyl-1-oxo-1H-2,3-benzoxazin-6-yl)prop-2-enamide] | 94.9451
CC(Cl)C(=O)NC(=O)NC1CCS(=O)(=O)C1 (stereo not drawn) [4-J13, 3-(2-chloropropanoyl)-1-(1,1-dioxo-1lambda6-thiolan-3-yl)urea] | 106.717
Cc1c(Cl)cccc1NC(=O)CNC(=O)CCl [5-N20, 2-chloro-N-{[(3-chloro-2-methylphenyl)carbamoyl]methyl}acetamide] | 96.5392
C=CC(=O)NC(C1CCC1)C1CCOC1 (stereo not drawn) [1-O22, N-[cyclobutyl(oxolan-3-yl)methyl]prop-2-enamide] | 94.2418
CCOc1ccc(C=C(C#N)C(=O)N2CCc3sccc3C2)cc1 [8-G22, 3-(4-ethoxyphenyl)-2-{4H,5H,6H,7H-thieno[3,2-c]pyridine-5-carbonyl}prop-2-enenitrile] | 89.9585
C=CC(=O)N1CCC(C(=O)NCc2cn3ccc(C)nc3n2)CC1 [3-D12, N-({7-methylimidazo[1,2-a]pyrimidin-2-yl}methyl)-1-(prop-2-enoyl)piperidine-4-carboxamide] | 107.27
O=C(CCl)Nc1ccc(Oc2cccc(Cl)c2)cc1 [6-C18, 2-chloro-N-[4-(3-chlorophenoxy)phenyl]acetamide] | 115.756
O=C(CCl)Nc1ccc2ccccc2c1 [4-B12, 2-chloro-N-(naphthalen-2-yl)acetamide] | 131.872
O=C(CCl)c1cc2c3c(c1)CC(=O)N3CCC2 [10-G16, 6-(2-chloroacetyl)-1-azatricyclo[6.3.1.0,4,12]dodeca-4(12),5,7-trien-2-one] | 130.938
N#CC(=Cc1ccc(Cl)c(Cl)c1)C(=O)NCc1ccccc1 [8-B07, N-benzyl-2-cyano-3-(3,4-dichlorophenyl)prop-2-enamide] | 110.539
C=CC(=O)Nc1cc(NC(=O)c2ccc([N+](=O)[O-])o2)ccc1F [3-J04, N-[4-fluoro-3-(prop-2-enamido)phenyl]-5-nitrofuran-2-carboxamide] | -4.528
CCc1ccccc1NC(=O)CN(C)C(=O)C(C)Cl (stereo not drawn) [4-P05, 2-chloro-N-{[(2-ethylphenyl)carbamoyl]methyl}-N-methylpropanamide] | 90.7099
N#CC(=Cc1cccc2nccn12)C(=O)Nc1ccccc1 [9-M05, 2-cyano-3-{imidazo[1,2-a]pyridin-5-yl}-N-phenylprop-2-enamide] | 108.464
C=CC(=O)Nc1ccc2c(c1)CCO2 [1-O11, N-(2,3-dihydro-1-benzofuran-5-yl)prop-2-enamide] | 111.824
Cc1cc(C(=O)CCl)c(C)n1-c1ccc(OC(F)F)c(Cl)c1 [10-K04, 2-chloro-1-{1-[3-chloro-4-(difluoromethoxy)phenyl]-2,5-dimethyl-1H-pyrrol-3-yl}ethan-1-one] | 0
C=CC(=O)Nc1ccc(OC)c(COC)c1 [3-B06, N-[4-methoxy-3-(methoxymethyl)phenyl]prop-2-enamide] | 91.2495
c1ccc(CSSCc2ccccc2)cc1 [10-O21, [(benzyldisulfanyl)methyl]benzene] | 113.125
CNC(=O)C(C#N)=Cc1cccc(-c2ccncc2)c1 [9-L14, 2-cyano-N-methyl-3-[3-(pyridin-4-yl)phenyl]prop-2-enamide] | 106.367
COc1ccccc1NC(=O)c1ccc(NC(=O)C(C)Cl)cc1 (stereo not drawn) [5-C17, 4-(2-chloropropanamido)-N-(2-methoxyphenyl)benzamide] | 104.918
C=CC(=O)N1CCC(F)CC1 [1-D14, 1-(4-fluoropiperidin-1-yl)prop-2-en-1-one] | 103.385
Cc1ccc(C=C(C#N)C(=O)Nc2ccc(C(=O)O)cc2)o1 [8-C14, 4-[2-cyano-3-(5-methylfuran-2-yl)prop-2-enamido]benzoic acid] | 106.224
